This experiment deals with TC-1 tumor (HPV 16 E6/E7 and c-H-ras). The experiment can be described thus: Therapeutic vaccination of tumor bearing mice.
Where [1] appears, read: vaccinated with ODN-CpG when tumors palpable and 14 days later.

For “RAHYNIVTF (minimal 9 amino acid long CTL epitope) [E7 49-57, reference compound]”, the “mice that died of their tumor” value (vaccinated with CpG, 65 days follow-up) was 6/9. For the same sequence, under setting [1], the “animals with complete eradication” value was 30% and the “mice with complete eradication of tumor” value is 3 out of 9.

The values are drawn from patent publication US9650423B2, “Long peptides of 22-45 amino acid residues that induce and/or enhance antigen specific immune responses” (priority 2000, dated 2017).
